In all, about 290,000 compounds went through this assay and about 2,100 (0.72%) were called active. The inconclusive results got no clear call from the source; some entries with a clear call stand among them for comparison. The call rests on the fitted dose curve; in most records, active means well fitted inhibition curve with a large enough effect; inconclusive means small, poorly fitted or top-dose-only effect, or effect the other way; inactive means flat fitted curve, though single readings scatter. Potencies of inconclusive entries are doubtful fits and often do not repeat.
Target: Fructose-bisphosphate aldolase (Giardia intestinalis (strain ATCC 50803 / WB clone C6)) (UniProt A8B2U2)
Experiment: qHTS Assay for Inhibitors of Fructose-1,6-bisphosphate Aldolase from Giardia Lamblia; further: nearly all actives have a fitted effect of over 55% in size
Conditions: purified Giardia FBPA; series mostly up to 59.6 µM
Method in brief: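 40 nM FBPA preincubated 10 min at RT with compound (up to 57.5 uM final), then substrate plus GAPDH/TPI/NAD/arsenate coupling and diaphorase/resazurin added. Fluorescence read after 20 min at RT, 525/598 nm.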
Potency means the concentration at half of the fitted maximal effect; tags describe the fitted curve by direction and shape.

Chain of UniProt A8B2U2 (A8B2U2 whole entry, looked up): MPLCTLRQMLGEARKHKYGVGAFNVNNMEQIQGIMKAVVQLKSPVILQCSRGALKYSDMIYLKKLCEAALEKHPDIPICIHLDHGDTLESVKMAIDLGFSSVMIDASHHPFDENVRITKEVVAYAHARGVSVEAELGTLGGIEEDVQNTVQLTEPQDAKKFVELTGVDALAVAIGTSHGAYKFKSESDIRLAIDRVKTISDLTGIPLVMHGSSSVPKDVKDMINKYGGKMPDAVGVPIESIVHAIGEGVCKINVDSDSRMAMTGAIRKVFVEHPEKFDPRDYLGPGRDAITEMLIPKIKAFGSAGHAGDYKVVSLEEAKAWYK

SMILES	Potency
COc1ccc2[nH]c(=O)c(-c3nnn(-c4ccccc4)n3)cc2c1	inactive
O=C(O)CCn1nnc(-c2ccccc2)n1	inactive
COC(=O)CCCC1=CC2=C(c3ccccc3)C(=O)C(C)(OC(=O)C3CCCC3)C(=O)C2=CN1Cc1ccc(OC)cc1 (stereo unspecified)	inconclusive: 8.89 µM [inhibitor, partial curve]
Cc1cc(=O)oc2c3c4c(cc12)OCCN4CCC3	inconclusive: 17.7 µM [inhibitor, single point]
COc1ccc(NC(=O)CC2C(=O)N(c3ccc(F)cc3)C(=S)N2NC(=O)c2ccc(Cl)cc2)cc1 (stereo unspecified)	inactive
C=CCc1c(C)nc(C)nc1N/N=C/c1ccc(F)cc1	inconclusive: 8.89 µM [inhibitor, partial curve]
O=[N+]([O-])c1c(Nc2ccccc2O)ccc2nonc12	inconclusive: 12.6 µM [inhibitor, partial curve]
COc1ccc(N2C(=O)/C(=C/N(C)C)NC2=S)cc1	inconclusive: 17.7 µM [inhibitor, single point]
CN(Cc1ccccn1)Cc1cn(Cc2ccccc2)nc1-c1ccc2c(c1)OCO2	inactive
O=C(CC(c1ccccc1)c1cc(Br)ccc1O)N1CCCCC1 (stereo unspecified)	inactive
CCOC(=O)C1=C(C)OC2(O)c3ccccc3C(=O)C12O (stereo unspecified)	inconclusive: 19.9 µM [inhibitor, partial curve]
COc1ccc(OCCSc2ncnc3nc[nH]c23)cc1	inactive
Cc1ccccc1OCc1nc(-c2ccc(Br)o2)no1	inactive
O=C1c2sc3nc4n(c(=O)c3c2CCC1Br)CCCCC4 (stereo unspecified)	active: 19.9 µM
COc1ccc(NC(=O)C2C(=O)N(CCO)C3(C)CC2c2ccccc2O3)cc1 (stereo unspecified)	inconclusive: 15.8 µM [inhibitor, partial curve]
COc1ccccc1CNC(=O)c1cc2c(C)nn(Cc3ccc(F)cc3)c2s1	inactive
NCC(O)c1cc(O)c(O)cc1F (stereo unspecified)	active: 5.61 µM
CCN(c1ccccc1)S(=O)(=O)c1ccc(Cl)c(NC(=O)COC(=O)c2cc(O)c3ccccc3c2O)c1	active: 5 µM
COc1ccc(N2C(=NC(=O)C3CCCCC3)SC3CS(=O)(=O)CC32)cc1OC (stereo unspecified)	inconclusive: 35.5 µM [inhibitor, partial curve]
Cc1ccc(S(=O)(=O)Nc2nc(C)c(C(=O)N/N=C/c3ccccc3)s2)cc1	inconclusive: 12.6 µM [inhibitor, partial curve]
CN(C)c1ccc(C(c2nnnn2CCOC(=O)Nc2ccc(Cl)cc2)N2CCOCC2)cc1 (stereo unspecified)	inconclusive: 17.7 µM [inhibitor, single point]
